From patent publication US20230235080A1, “TROPHOBLAST CELL-SURFACE ANTIGEN-2 (TROP-2) ANTIBODIES” (Bionecure Therapeutics, Inc., priority 2020, published 2023)
Entries after “also recorded” stand apart in the source; their conditions may differ.

T1: mouse Trop-2-His (Mus musculus, UniProt Q8BGV3)
T1 sequence (Q8BGV3 25-317): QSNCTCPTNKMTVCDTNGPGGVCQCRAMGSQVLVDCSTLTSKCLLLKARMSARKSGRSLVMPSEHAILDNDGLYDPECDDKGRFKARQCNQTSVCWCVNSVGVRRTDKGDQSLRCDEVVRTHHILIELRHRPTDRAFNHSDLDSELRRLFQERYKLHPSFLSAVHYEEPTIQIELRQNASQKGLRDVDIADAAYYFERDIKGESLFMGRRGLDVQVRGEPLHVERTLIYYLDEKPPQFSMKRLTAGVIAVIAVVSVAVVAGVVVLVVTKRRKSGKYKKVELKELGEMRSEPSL

T2: human Trop-2ECD-6His (Homo sapiens, UniProt P09758)
T2 construct: made in house; host or cells: human 293 cell line
T2 sequence (P09758 with tags, fused parts or gaps): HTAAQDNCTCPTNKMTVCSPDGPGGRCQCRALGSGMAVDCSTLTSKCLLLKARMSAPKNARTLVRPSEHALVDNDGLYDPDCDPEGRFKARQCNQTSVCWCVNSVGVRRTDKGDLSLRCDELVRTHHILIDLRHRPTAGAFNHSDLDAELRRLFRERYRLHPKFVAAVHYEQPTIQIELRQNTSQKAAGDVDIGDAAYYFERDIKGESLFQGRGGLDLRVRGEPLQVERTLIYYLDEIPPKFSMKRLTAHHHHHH

T3: human EPCAM-His (Homo sapiens, UniProt P16422)
T3 sequence (P16422 24-314): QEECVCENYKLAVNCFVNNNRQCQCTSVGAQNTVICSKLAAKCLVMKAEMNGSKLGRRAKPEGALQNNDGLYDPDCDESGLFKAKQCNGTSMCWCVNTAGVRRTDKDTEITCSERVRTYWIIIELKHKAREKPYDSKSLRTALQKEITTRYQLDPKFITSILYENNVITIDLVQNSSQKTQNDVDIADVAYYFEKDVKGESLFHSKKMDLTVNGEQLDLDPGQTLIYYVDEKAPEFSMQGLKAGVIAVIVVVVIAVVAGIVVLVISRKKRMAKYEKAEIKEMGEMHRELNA


How the values were obtained:
[1] = molecular target: T1, mouse Trop-2-His; test: Cross-reactivity ELISA, mouse Trop-2; format: binding; conditions: plate coated with 1 µg/mL antigen
Method: (§1) Cross-reactivity of chimeric IgG #118-2-5 and #125-1-5 to the Trop-2 antigens from different species was assessed by ELISA. In this experiment, a microtiter plate was coated overnight at 4° C. with 50 µL/well of 1 µg/mL human Trop-2ECD-6His, mouse Trop-2-His, cynomolgus Trop-2-His, human EPCAM-His, and a non-related protein. The plate was washed and blocked for 1 hr at 37° C., and then washed with wash buffer. Purified chimeric IgGs appropriately diluted in PBS were added to wells and incubated for 1 hr at 37° C. After washing, bound antibodies were detected using HRP-conjugated goat-anti-human IgG Ab. Color development and absorbance at OD450 nm were read. A non-specific mock mouse IgG and a non-specific mock human IgG were included as the negative controls, while anti-His antibody was used as a positive control.
(§2) The cross-reactivity of purified IgGs to the Trop-2 antigens from different species was tested by ELISA. In this experiment, a microtiter plate was coated overnight at 4° C. with 50 µL/well of 1 µg/mL human Trop-2ECD-6His, mouse Trop-2-His, cynomolgus Trop-2-His, human EPCAM-His, and a non-related protein. The plate was washed and blocked for 1 hr at 37° C., and then washed with wash buffer. […] After washing, bound antibodies were detected using HRP-conjugated goat-anti-human IgG antibody. Color development and absorbance at OD450 nm were read. […]

[2] = molecular target: T2, human Trop-2ECD-6His; test: Octet Bio-Layer Interferometry kinetics assay; format: binding; conditions: for binding affinity to huTrop-2 compared to benchmark hRS7: in words, Octet kinetics assay
Excerpt: The binding affinity of human IgGs to their antigens can be determined by Octet system based on Bio-Layer Interferometry (BLI) technique. BLI is a layer of molecules attached to the tip of an optic fiber which creates an interference pattern at the detector, any change in the number of molecules bound causes a measured shift in the pattern. Octet system enables real-time analysis for determination of affinity and kinetics from biomolecular interactions in 96-well microplates. Briefly, target antigen can be diluted and loaded to a 96-well microplate. Antibody is then diluted and added to the assigned wells. The plate is put in the Octet system and assay is started. The data can be analyzed using the Octet Data Acquisition Software (fortebio data analysis 10.0) to calculate an association rate constant Kon, a dissociation rate constant Koff, and a dissociation constant Kd (Kd = Koff/Kon).
The binding affinity of the purified anti-Trop-2 IgGs to human Trop-2 protein were determined by Octet system based on Bio-Layer Interferometry (BLI) technique. BLI is a layer of molecules attached to the tip of an optic fiber which creates an interference pattern at the detector, any change in the number of molecules bound causes a measured shift in the pattern. Octet system enables real-time analysis for determination of affinity and kinetics from biomolecular interactions in 96-well microplates. Briefly, Trop-2 antigen (human Trop-2ECD-6His) was diluted to concentrations of 50, 25, 12.5, 6.25, and 3.125 nM, and loaded to a 96-well microplate. A1X4 or A1,2X4 antibody was diluted and added to the assigned wells at a final concentration 8 µg/ml. The plate was put in the Octet system and assay was started. The data was analyzed using the Octet Data Acquisition Software (fortebio data analysis 10.0) to calculate an association rate constant Kon, a dissociation rate constant Koff, and a dissociation constant Kd (Kd = Koff/Kon).

[3] = system: cynomolgus Trop-2-His; test: Cross-reactivity ELISA, cynomolgus Trop-2; format: binding; conditions: plate coated with 1 µg/mL antigen
Method: as §1, §2

[4] = system: Trop-2 postive breast cancer cells MDA-MB-468; test: Internalization of humanized anti-Trop-2 antibodies by flow cytometry (Example 7); format: cell-based, human; conditions: in words; 400, 1000, 3000, 10000 ng/ml; 2 hours at 37° C.
Method: Internalizationi and degradation of anti-Trop-2 antibodies was measured by flow cytometry. In this study, fluorescent-conjugated secondary antibodies were used to detect the primary antibodies left on after internalization.
Trop-2 postive breast cancer cells MDA-MB-468 were seeded in 1 × 10^5 cell/well. Next, either hRS7, or A1X4, or A1,2X4 antibody was added to cells in FACS buffer at concentrations of 400, 1000, 3000, or 10000 ng/ml, respectively, and incubated for 30 minutes at 4° C. After incubation, the cells were washed three times with FACS buffer to removed unbound antibody. The cells were then incubated at 37° C. with 5% CO2 for antibody internalization. After 2 hours, the cells were dissociated with Trypsin and stained with fluorescent-conjugated goat anti-human IgG secondary antibodies for 30 minutes on ice in dark before being analyzed using Beckman flow cytometry system. The fluorescent intensity and cell binding percentage at each time point were analyzed by Beckman flow cytometric software. The amount of anti-Trop-2 antibodies internalized into cells at each concentration was determined using the following formula: % internalization rate = 100 × (MFI4°C- MFI37°C) / MFI4°C

[5] = system: non-related protein; test: Cross-reactivity ELISA, non-related protein; format: binding; conditions: plate coated with 1 µg/mL protein
Method: as §1, §2

[6] = molecular target: T2, human Trop-2ECD-6His; test: Cross-reactivity ELISA, human Trop-2; format: binding; conditions: plate coated with 1 µg/mL antigen
Method: as §1, §2

[7] = molecular target: T3, human EPCAM-His; test: Cross-reactivity ELISA, human EPCAM; format: binding; conditions: plate coated with 1 µg/mL antigen
Method: as §1, §2

| recognition of mouse Trop-2 (ELISA, OD450 nm) [1] | Kd ([2]; Table 14, antibody 8 µg/ml, antigen 3.125-50 nM) [nM] | Koff(⅟S) ([2]; Table 14, dissociation rate constant) | binding affinity to huTrop-2 compared to benchmark hRS7 [2] | binding to cynomolgus Trop-2 antigen (ELISA, OD450 nm) [3] | binding to human Trop-2 antigen (ELISA, OD450 nm) [6] | recognition of hEPCAM (ELISA, OD450 nm) [7] | Molecule | internalization rate (FIG. 4) [4] | recognition of the non-related protein (ELISA, OD450 nm) [5] |
| --- | --- | --- | --- | --- | --- | --- | --- | --- | --- |
| did not recognize | 2.11 | 5.69E-04 ⅟S | moderate binding affinity | able to bind | able to bind | did not recognize | A1X4: humanized IgG, variable regions SEQ ID NOs: 29/37; HC SEQ ID NO: 53, LC SEQ ID NO: 54 (antibody) heavy: QVQLQESGPGLVKPSETLSLTCTVSGFSLTSYGVNWIRQPPGKGLEWIGVMWAGGSTNYNSALMSRVTISVDTSKNQFSLKLSSVTAADTAVYYCARDENWDGAWFAYWGQGTLVTVSSASTKGPSVFPLAPSSKSTSGGTAALGCLVKDYFPEPVTVSWNSGALTSGVHTFPAVLQSSGLYSLSSVVTVPSSSLGTQAYICNVNHKPSNTKVDKKVG[left out - human IgG1 Fc with K334R T359A (EU numbers)] light: DIVMTQSPDSLAVSLGERATINCKSSQSLLNSGTRKNYLAWYQQKPGQPPKLLISWASSRESGVPDRFSGSGSGTDFTLTISSLQAEDVAVYYCKQSYNLFTFGGGTKVEIKRTVAAPSVFIFPPSDEQLKSGTASVVCLLNNFYPREAKVQWKVDNALQSGNSQESVTEQDSKDSTYSLSSTLTLSKADYEKHKVYACEVTHQGLSSPVTKSFNRGEC | the most efficient one; also recorded: higher internalization rate compared to benchmark antibody hRS7 | did not recognize |
| did not recognize |  |  | moderate binding affinity | able to bind | able to bind | did not recognize | A1,2X4: humanized IgG, variable regions SEQ ID NOs: 40/37; HC SEQ ID NO: 51, LC SEQ ID NO: 52 (antibody) heavy: QVQLQESGPGLVKPSETLSLTCTVSGFSLTSYGVNWIRQPPGKGLEWIGVMWAGGSTNYNSALMSRLTISKDTSKNQFSLKLSSVTAADTAVYYCARDENWDGAWFAYWGQGTLVTVSSASTKGPSVFPLAPSSKSTSGGTAALGCLVKDYFPEPVTVSWNSGALTSGVHTFPAVLQSSGLYSLSSVVTVPSSSLGTQAYICNVNHKPSNTKVDKKVG[left out - human IgG1 Fc with K334R T359A (EU numbers)] light: DIVMTQSPDSLAVSLGERATINCKSSQSLLNSGTRKNYLAWYQQKPGQPPKLLISWASSRESGVPDRFSGSGSGTDFTLTISSLQAEDVAVYYCKQSYNLFTFGGGTKVEIKRTVAAPSVFIFPPSDEQLKSGTASVVCLLNNFYPREAKVQWKVDNALQSGNSQESVTEQDSKDSTYSLSSTLTLSKADYEKHKVYACEVTHQGLSSPVTKSFNRGEC | higher internalization rate compared to benchmark antibody hRS7 | did not recognize |
